Results on 43 molecules are retold here after article PMC4336329 (PLoS ONE, 2015).

Screen size: about 310,000 compounds; about 14,000 (4.5%) showed an effect of 50% or more. Effects have a minus sign here. The list shows a part of the results.
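Further: peak tail current of the secondary pulse compared with the same well before compound.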

The target of the experiment is human ether-à-go-go-related gene (hERG) potassium channel (human, UniProt Q12809). The experiment is described as follows: primary screen, population patch clamp on CHO cells stably expressing hERG.
Chain of human ether-à-go-go-related gene (hERG) potassium channel (Q12809 whole entry, looked up): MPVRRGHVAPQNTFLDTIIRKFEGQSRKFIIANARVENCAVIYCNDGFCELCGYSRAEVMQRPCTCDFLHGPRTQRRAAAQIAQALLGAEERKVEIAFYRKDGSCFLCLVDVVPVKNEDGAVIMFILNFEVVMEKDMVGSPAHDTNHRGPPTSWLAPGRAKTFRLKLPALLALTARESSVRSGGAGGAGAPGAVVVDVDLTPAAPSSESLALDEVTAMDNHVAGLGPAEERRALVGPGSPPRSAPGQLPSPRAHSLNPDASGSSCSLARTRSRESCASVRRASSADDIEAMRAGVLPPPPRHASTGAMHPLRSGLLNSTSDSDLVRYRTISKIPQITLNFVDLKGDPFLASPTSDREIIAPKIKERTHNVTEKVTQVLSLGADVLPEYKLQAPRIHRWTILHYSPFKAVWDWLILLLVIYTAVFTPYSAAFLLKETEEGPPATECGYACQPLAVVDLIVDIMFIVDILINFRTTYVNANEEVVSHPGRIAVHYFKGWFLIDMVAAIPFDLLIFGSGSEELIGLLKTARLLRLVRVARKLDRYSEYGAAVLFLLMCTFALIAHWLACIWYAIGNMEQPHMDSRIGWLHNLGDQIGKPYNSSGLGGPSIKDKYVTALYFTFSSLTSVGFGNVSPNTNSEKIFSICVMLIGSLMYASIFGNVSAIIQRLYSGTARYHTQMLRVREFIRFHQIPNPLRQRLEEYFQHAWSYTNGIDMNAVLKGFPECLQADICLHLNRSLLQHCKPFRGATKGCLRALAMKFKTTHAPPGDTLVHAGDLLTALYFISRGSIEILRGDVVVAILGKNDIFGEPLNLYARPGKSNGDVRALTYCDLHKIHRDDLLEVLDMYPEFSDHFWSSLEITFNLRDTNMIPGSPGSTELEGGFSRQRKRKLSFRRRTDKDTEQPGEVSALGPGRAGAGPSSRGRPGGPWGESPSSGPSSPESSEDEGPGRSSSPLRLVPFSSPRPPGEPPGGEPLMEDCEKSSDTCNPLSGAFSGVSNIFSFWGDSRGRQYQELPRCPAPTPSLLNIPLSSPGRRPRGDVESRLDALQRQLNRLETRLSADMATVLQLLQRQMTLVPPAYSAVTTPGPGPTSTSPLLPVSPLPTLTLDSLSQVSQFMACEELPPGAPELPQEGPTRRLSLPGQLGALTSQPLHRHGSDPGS
Regarding `Cc1ccc(NS(=O)(=O)c2ccc(-c3coc(C)n3)cc2)c(C)c1`, the “hERG current change (%, negative = inhibition) at 10uM” value was found to be 15.6%.

On to `O=c1c2ccccc2c(-c2n[nH]c(=S)o2)nn1Cc1ccccc1`, for which the “hERG current change (%, negative = inhibition) at 10uM” value turned out to be 19.4%.

`Cc1cccc(NC(=O)Cn2cnc3c(cnn3-c3ccc(F)cc3)c2=O)c1C`: the “hERG current change (%, negative = inhibition) at 10uM” value came out at 2.99%.

Regarding `CC(C)(C)OC(=O)Nc1ccc([C@@H](NC(=O)OC(C)(C)C)C(=O)OC(C)(C)C)cc1`, the “hERG current change (%, negative = inhibition) at 10uM” value is 18.3%.

In the case of `Br.CC(=O)Nc1nc(C)c(-c2csc(Nc3ccc(O)cc3)n2)s1`, the “hERG current change (%, negative = inhibition) at 10uM” value is reported as -13.9%.

Take `COc1ccc(N2CCN(C(=O)Cn3nnc(-c4ccc(OC)c(OC)c4)n3)CC2)cc1`: the “hERG current change (%, negative = inhibition) at 10uM” value is 4.33%.

For `Cc1cccc(OCC(=O)NCc2nc(-c3ccccc3)no2)c1`, the “hERG current change (%, negative = inhibition) at 10uM” value turned out to be 14.2%.

Consider `c1c2c(cc3sc(N4CCCCC4)nc13)OCCO2`, for which the “hERG current change (%, negative = inhibition) at 10uM” value was -8.44%.

As to `Cc1ccc(OCC(=O)Nc2nnc(S(=O)(=O)N3CCCCCC3)s2)cc1C`, the “hERG current change (%, negative = inhibition) at 10uM” value came out at 9.72%.

As to `Cc1ccc(OCC(O)Cn2c(=N)n(Cc3ccccc3)c3ccccc32)cc1.Cl` (stereo not shown), the “hERG current change (%, negative = inhibition) at 10uM” value is given as -81.6%.

`CNC(=S)N/N=C/c1cccc(OCc2ccccc2F)c1`: the “hERG current change (%, negative = inhibition) at 10uM” value turned out to be 18.3%.

With `CCc1ccc(CN2CCCC(C(=O)Nc3ccccc3-c3ccc(OC)cc3)C2)o1` (stereo not shown), the “hERG current change (%, negative = inhibition) at 10uM” value was -33.9%.

As to `Cc1cc(C(=O)CN2C(=O)C(=O)N(Cc3ccccc3)C2=O)c(C)n1-c1ccccc1F`, the “hERG current change (%, negative = inhibition) at 10uM” value is reported as 15.1%.

Take `O=C(NCc1ccc2c(c1)OCO2)c1ccc2c(c1)OCO2`: the “hERG current change (%, negative = inhibition) at 10uM” value worked out at 8.07%.

Consider `COCCN(C(=O)CSc1nncn1-c1ccccc1)c1c(N)n(Cc2ccccc2)c(=O)[nH]c1=O`, for which the “hERG current change (%, negative = inhibition) at 10uM” value stood at 11.3%.

In the case of `CCOC(=O)Nc1ccc2c(c1)N(C(=O)CCN1CCOCC1)c1ccccc1S2.Cl`, the “hERG current change (%, negative = inhibition) at 10uM” value is recorded as -7%.

With `CCC1=C(OC(=O)N(CC)CC)N2C(=O)OC(=NCc3ccccc3)[C@]2(C)[C@H]2C1=CC[C@H]1C(=O)N(CC(=O)OC)C(=O)[C@H]12`, the “hERG current change (%, negative = inhibition) at 10uM” value is given as -1.33%.

`O=C(Nc1ccccc1)Nc1cc(Cl)cc(Cl)c1`: the “hERG current change (%, negative = inhibition) at 10uM” value was found to be 13.5%.

For the molecule `Cn1cnnc1SC/C(O)=C(\C#N)c1nc2ccccc2[nH]1`, the “hERG current change (%, negative = inhibition) at 10uM” value was 24.1%.

Take `Cc1ccc(SCC(=O)Nc2cc([N+](=O)[O-])ccc2O)cc1`: the “hERG current change (%, negative = inhibition) at 10uM” value is reported as 12.2%.

For the molecule `Cc1oc(-c2ccc(Cl)cc2)nc1CS(=O)CC(=O)NCCCN1CCCC(C)C1` (stereo not shown), the “hERG current change (%, negative = inhibition) at 10uM” value was -36.8%.

`O=P(Nc1ccccc1)(Nc1ccccc1)Oc1ccccc1`: the “hERG current change (%, negative = inhibition) at 10uM” value is -9.29%.

`CCOc1ccc(NC(=O)CN(C)C(=O)C2CCCC2)cc1OCC`: the “hERG current change (%, negative = inhibition) at 10uM” value is on record as 27.8%.

`CC(C)N(C(=O)COC(=O)c1ccc(O)cc1)C(C)C`: the “hERG current change (%, negative = inhibition) at 10uM” value is given as -1.54%.

Take `Cc1ccc(NC(=O)c2cccc(S(=O)(=O)N3CCCc4ccccc43)c2)nc1`: the “hERG current change (%, negative = inhibition) at 10uM” value is reported as -13.9%.

For `N#CC(C#N)=C1C=CC=CN1/C(=C\c1ccco1)C(=O)c1ccc(Br)cc1`, the “hERG current change (%, negative = inhibition) at 10uM” value was -46.5%.

On to `COc1ccccc1OCCCCCCN1CCN(C)CC1.O=C(O)C(=O)O`, for which the “hERG current change (%, negative = inhibition) at 10uM” value is recorded as -5.83%.

As to `COc1cc(OC)cc(C(=O)Nc2ccc(-c3nc4ccccc4o3)c(O)c2)c1`, the “hERG current change (%, negative = inhibition) at 10uM” value was found to be 1.35%.

Take `CN=C1SC(CC(=O)Nc2sc3c(c2C#N)CCCC3)C(=O)N1C` (stereo not shown): the “hERG current change (%, negative = inhibition) at 10uM” value is on record as 22.4%.

Take `C/C(=N\Nc1ccccc1Cl)c1ccc(-n2ccnc2)cc1`: the “hERG current change (%, negative = inhibition) at 10uM” value is -7.1%.

As for `O=C(Oc1ccc(OC(=O)N2CCCCC2)cc1)c1ccccc1`, the “hERG current change (%, negative = inhibition) at 10uM” value is recorded as -2.07%.

With `COc1nc(N2CCOCC2)nc(C)c1[N+](=O)[O-]`, the “hERG current change (%, negative = inhibition) at 10uM” value is given as -13.5%.

Consider `CCN(Cc1ccc(OC)c(F)c1)C(=O)C1CCCO1` (stereo not shown), for which the “hERG current change (%, negative = inhibition) at 10uM” value is listed as 36.5%.

In the case of `COC(=O)C1CCCCN1C(=O)c1ccc2oc(C(C)C)nc2c1` (stereo not shown), the “hERG current change (%, negative = inhibition) at 10uM” value worked out at 4.1%.

As to `COc1cccc(C(=O)N2CCN(Cc3ccccn3)CC2)c1.O=C(O)C(=O)O`, the “hERG current change (%, negative = inhibition) at 10uM” value stood at 18.8%.

For `Cc1ccnc(NC(=O)CCC(=O)N(CC(=O)NC(C)(C)C)c2ccc3c(c2)OCCO3)c1`, the “hERG current change (%, negative = inhibition) at 10uM” value amounted to 17.8%.

With `O=C1c2ccccc2C(Nc2ccccc2)N1c1cccnc1` (stereo not shown), the “hERG current change (%, negative = inhibition) at 10uM” value is given as -22.1%.

Regarding `O=C(NCCc1ccccc1)c1n[nH]c2ccccc12`, the “hERG current change (%, negative = inhibition) at 10uM” value was determined as 12.4%.

For the molecule `CC1=CSC2=NC(C(F)(F)F)(C(F)(F)F)NC(=O)N12`, the “hERG current change (%, negative = inhibition) at 10uM” value was -1.5%.

In the case of `CC(Sc1nnnn1-c1ccccc1)C(=O)NC1CCCC1` (stereo not shown), the “hERG current change (%, negative = inhibition) at 10uM” value is reported as -6.49%.

For `O=C(O)c1c(Cl)cccc1Cl`, the “hERG current change (%, negative = inhibition) at 10uM” value stood at 22.2%.

Take `CCc1nnc(NC(=O)C23CC4CC(CC(C4)C2)C3)s1`: the “hERG current change (%, negative = inhibition) at 10uM” value worked out at 12.3%.

Turning to `CCOc1ccc(NC(=O)CN(C)C(=O)c2ccc(OCC3CCCO3)cc2)cc1OCC` (stereo not shown), the “hERG current change (%, negative = inhibition) at 10uM” value came out at 6.31%.
